Variants at the background level are over-represented here.
B1: TPR 5TU (parent)
chain: GGAUCUUCUCGAUCUAACAAAAAAGACAAAUCUGCCACAAAGCUUGAGAGCAUCUUCGGAUGCAGAGGCGGCAGCCUUCGGUGGCGCGAUAGCGCCAACGUUCUCAACUAUGACACGCAAAACGCGUGCUCCGUUGAAUGGAGUUUAUCAUG

Variants of: B1
Test: polymerase ribozyme fitness, log enrichment relative to wild type (log ratio); higher = more active; in vitro selection for triplet polymerase activity
Summary of the method: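 Input and output libraries were sequenced on Illumina after a single in vitro selection round, run in triplicate on PCR-built, transcribed mutant libraries of each subunit of a heterodimeric triplet polymerase ribozyme. Selection annealed libraries to a biotinylated primer, the partner subunit and triplets, incubated them frozen at −7 °C, then gel-excised extended constructs for streptavidin-bead capture and RT-PCR. Genotypes with ≥10 input reads and ≥1 read per output were kept. Fitness is the logarithm, taken in base 2, of genotype enrichment divided by wild-type enrichment, using inverse-variance-weighted replicate averages.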

| Variant | polymerase ribozyme fitness (log ratio) |
| --- | --- |
| GGAUCUUCUCGAUCUAACAAAAGAGACAAAUCUGCCACAAAGCUUGAGAGCAUCUUCGGAUGCAGAGGCGGCAGCCUUCGGUGGCGCGAUAUCGCCAACGUUCUCAACUAUGACACGCAAAACGCGUGCUCCGUUGAAUGGAGUUUAUCAUG | -3.31 |
| GGAUCUUCUCGAUCUAACAAAAGAGACAAAGCUGCCACAAAGCUUGCGAGCAUCUUCGGAUGCCAAGGCGGCAGCCUUCGGGGGCGCGAUAGCGCCAACGUCCUCAACUAUGACACGCAAGACGCGUGCUCCGUUGAAUGGAGUUUAUCAUG | ≤ -4.2 |
| GGAUCUUCUCGAUCUAACAAAAGAGACAAAUCGGCCACAAAGCUUGAGAGCAUCUUCGGAUGCAGAGGCGGCAGCCUUCGGUGGCGCGAUAGCGCCAACGUUCUCAACUAUGACACGCAAAACGCGUGCUCCGUUGAAUGUAGUUUACCAUG | ≤ -4.2 |
| GGAUCUUCUCGAUCUAACAAAAGAGACAAAUCUGCCACAAAGCAUGUGAGCCUCUUCGGAUGCAGAGGCGGCAGCCUUCGGUGGCGGGUUAGCGCCUACGUUCUCAACUAUGACACGCAAAACGCGUGCUCCGUUAAAUGGAGUUUAUCAUG | ≤ -4.2 |
| GGAUCUUCUCGAUCUAACAAAAGAGACAAAUCUGCCACAAAGCGUGCGAGCAUCUUCGGAUGCAGAGGCGGCAGCCUUCGGUGGCGCGAUAGUGCCUACGUUCUCAACUAUGACAAGCAAAACGCGUCCUCCGCUGAAUGGAGUUCAUCAUG | ≤ -4.2 |
| GGAUCUUCUCGAUCUAACAAAAGAGACAAAUCUGCCACAAAGCUAGAGAGCAUCAUAGGGUGCAGAAGCGGCAGCCUUCGGUAGCGCGAUAGCGCCAACGUUCUCAACUAUGACACGCAAAACGCGUGCUCCGUUGAAUGGAGUUUAUCAUG | ≤ -4.2 |
| GGAUCUUCUCGAUCUAACAAAAGAGACAAAUCUGCCACAAAGCUUGAGAGCAUCCUCGGAUGCAGAGGCGGCAGCCUUCUGUGGCGCGAUAGGGCCAACGUUCUUAACUAUGACACGCAAAAGGCGUGCUCCGUUGAAUGGAUUUUAUCAUG | ≤ -4.2 |
| GGAUCUUCUCGAUCUAACAAAAGAGACAAAUCUGCCACAAAGCUUGAGAGCAUCCUCGGAUGCAGAGGCGGCAGCCUUCGUUGGCGAGGUGGCGCCAACGUUCUCAACUAUGACACGCAUAACGCGUGCUCCGUUGAAUGGAGUUUAUCAUG | ≤ -4.2 |
| GGAUCUUCUCGAUCUAACAAAAUAGACAAAUCUGCCACAAAGCUUGAGAGCAUCUUCGGAUGCAGAGGCGGCAGCCUUCGGUGGCGCGAUAGCGCCAACGUUCUCAACUAUGACACGCAAAACGCGUGCUCCGUUGAAUGGAGUUUAUCAUG | -3.23 |
| GGAUCUUCUCGAUCUAACAAAAUGGACAAAUCUGACACAAAGCUUGAGAGCAUCUUCGGAUGCAGAGGCGGCAGCCUUCGGUGGCGCGAUAGCGCCAACGUUCUCGACUAUGACACGCAAAACGCGUGCUCCGUUGAAUUGAGUUUAUCAUG | ≤ -4.2 |
| GGAUCUUCUCGAUCUAACAAAAUAGCCAAAUCUGCCACAAAGCUUGAGAACAUCUUCGGAUGCAGAGGCGGCAGCCUUCGGUGGCGCGAUAGCGCCAACGUUCUCAACUAUGACACGCAAAACGCGUGCUCCGUUGAAUGGAGUUUAUCAUG | ≤ -4.2 |
| GGAUCUUCUCGAUCUAACAAAAUAGUUAAAUCUGCCACAAUGCUUGAGAGCAUCUUCGGAUGCAGAGGCGGCAGCCUUCGGUGGCGCGAUAGUGACAACGUUCUCAACUAUGACACGCAAAACGCGUGCUCCGUUGAAUGGAGUUUAUCAUG | ≤ -4.2 |
| GGAUCUUCUCGAUCUAACAAAAUAGACCAAUCUGCCACAAAGCUUGAGAGCAUCUUCGGCGGCAGAGGCGGGAGCCUUCGGUGGCGCGAUAGCUCCAACGUUCUCAACUAUGACACGCAAAACGCGCGCUCCGUUGAAUGGAGUUUAUCAUG | ≤ -4.2 |
| GGAUCUUCUCGAUCUAACAAAAUAGACGAACCUACCACAAAGCUUGAGCGCAUCUUCGGAUGCAGAGGCGGCAGCCUUCGGUGGCGUGAUAGCGCCAACGUUCUCAACUAUGACACGCAAAACGCGUGCUCCGUUGUAUGGAGUUUCUCAUG | ≤ -4.2 |
| GGAUCUUCUCGAUCUAACAAAAUAGACUAAUCUGCCACACAGCUUGAGAGCAUGUUCCGAUGCAGAGGCGGCAGACUUCGGUGACGCGAUAGCGCCAACGUUCUCAACUAUGACACGCAAAACGCAUGCGCCGUUCAAUGGAGUUUAUCAUG | ≤ -4.2 |
| GGAUCUUCUCGAUCUAACAAAAUAGACAUAUCUGCCACAAAGCUUGAGAGCAUCUUCGGAUGCAGAGGCGGCAGCCUUCGGUGGCGCGAUAGCGCCAACGUUCUCAACUAUGACACGCAAUACGCGUGCUCCGUUGAAUGUAGUUUAUCAUG | ≤ -4.2 |
| GGAUCUUCUCGAUCUAACAAAAUAGACAAUUCUGCCACAAAGCUUGAGAGGAUCUUCGGAUGCAGAGGCGGCAGCCUUCGGUGGCUCGAUAGCGCCAACGUUCUCAACUAUGACACGCAAAACGCGUGCUCCGUUGAAUUGAGAUUAUCAAG | ≤ -4.2 |
| GGAUCUUCUCGAUCUAACAAAAUAGACAAAUCUGCCACUAAGCUUGAGAGCAUCUUCGGAUGCAGAGGCGGUAGCCUUCGGUGGCGCGAUAGUGCCAACGUUCUCAACUAUGACACGCAAAACGCGUGCACUGUUGAAUGGAGUUUAUCAUG | ≤ -4.2 |
| GGAUCUUCUCGAUCUAACAAAAUAGACAAAUCUGCCACAAUGCUUGAGAGCAUCUUCGGAUGCAGAGGCGGCUGCCUUCGGCGGCGCGAUAGUGCCAACGUUCUCACCUAUGACACGCAAAACGCGUGCUCCGUUGAAUGGAGUUUAUCAUG | ≤ -4.2 |
